This is one part of the list. Each Rep nickase domain was tested in vitro on the same pool of single strands at 3 µM enzyme and 37 °C for 1 h; the strands have 90 letters, of which the middle is given. Uncut reads are compared with the no-enzyme pool on a log2 scale; the lower, the more was cut; hits are not called. The scaling is to total reads; uncut strands gain when others are lost, and binding without cutting may add a little.

The first assay concerns T1, Rep nickase domain of Muscovy duck circovirus.
T1 sequence (Rep 1-111, printed without the tag): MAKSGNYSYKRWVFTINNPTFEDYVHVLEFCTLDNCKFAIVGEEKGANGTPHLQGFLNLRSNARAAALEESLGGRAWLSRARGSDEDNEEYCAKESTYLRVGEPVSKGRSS
In words: uncleaved DNA left, log2 of reads against the no-enzyme library (log2 ratio); higher = less cleavage (more negative = more Rep cleavage of the k-mer); sequences stand for … in CTCGTCCG…ACCGGAGA
Here is the method: (§1)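 A pool of 90-nt single-stranded DNAs with seven random bases just before the constant AC of the nick site (name = the seven bases) was cut by 3 µM recombinant His6-SUMO-tagged Rep nickase domain (300 nM DNA, 50 mM HEPES pH 8.0, 50 mM NaCl, 1 mM MnCl2, 1 h, 37 °C, three replicates). Uncut DNA was amplified and sequenced.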
With CTGGGAG, the “uncleaved DNA left (log2)” value turned out to be 0.00207.
For TGATATT, the “uncleaved DNA left (log2)” value is -3.84.
Turning to TAAATCG, the “uncleaved DNA left (log2)” value was -0.00756.
Same read-out and setting: in the case of GGCCGCC it was -0.0521; in that of CCCACGA, -0.0525; in that of TTGATTA, -0.072.
On the same count and under the same terms, the figure for AAAATGG is 0.0844; for TGTAAGT it is 0.151; for AGGATCT it is 0.106.
On the same count and under the same terms, the figure for ATGATAA is 0.0321; for GGGTATA it is 0.00943.
On to ATGAGAC, for which the “uncleaved DNA left (log2)” value is -0.00274.
Same read-out and setting: the figure for AGGAAAG is -0.0655; for CATCCCA it is -0.0334; for ATGTAGA it is -0.0029.
Still for that read-out and setting: the figure for GGTTCAA is 0.044; for TTACACA it is 0.0135.
On the same count and under the same terms, in the case of GGTGCTC it was -0.0166.
AGTCCGC: the “uncleaved DNA left (log2)” value was determined as 0.0121.
With AAGCACA, the “uncleaved DNA left (log2)” value came out at 0.00401.
The same measure, in the same setting: in the case of TTAATGG it was 0.165.
Consider AACAATT, for which the “uncleaved DNA left (log2)” value is -0.122.
On the same count and under the same terms, the figure for GGCCCAA is 0.0965; for CGGCCGG it is 0.182.
Take AGAACCT: the “uncleaved DNA left (log2)” value is -0.0128.
As for AATACAG, the “uncleaved DNA left (log2)” value amounted to 0.0439.
On the same count and under the same terms, the figure for GCTAGGT is 0.0996; for GATTATC it is -0.0681; for TCCACCC it is -0.0684.
The same measure, in the same setting: in the case of GAGGAGC it was 0.239.
For AGTCGTG, the “uncleaved DNA left (log2)” value was -0.00242.
Take GCATAGT: the “uncleaved DNA left (log2)” value is -2.13.
Regarding TCCGTGT, the “uncleaved DNA left (log2)” value came to 0.0737.
For the sequence GTGACAG, the “uncleaved DNA left (log2)” value was -0.15.
Still for that read-out and setting: the figure for AACTTGA is -4.95e-05.
In the case of CTCTCTG, the “uncleaved DNA left (log2)” value is -0.0329.
Same read-out and setting: in the case of GAATTCA it was -0.141.
Still for that read-out and setting: in the case of ACGGGGA it was 0.0284.
Still for that read-out and setting: the figure for CCACTAG is -0.0706; for CTCCCAT it is -0.0201.

The subject of another assay is T2, Rep nickase domain of banana bunchy top virus.
T2 sequence (Rep 1-94, printed without the tag): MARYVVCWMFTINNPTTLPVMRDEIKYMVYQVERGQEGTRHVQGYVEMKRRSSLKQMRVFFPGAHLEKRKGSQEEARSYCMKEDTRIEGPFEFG
Described as above. The protocol:
as §1
CTGGGAG: the “uncleaved DNA left (log2)” value was -0.0447.
The same measure, in the same setting: the figure for TGATATT is -1.05.
As to TAAATCG, the “uncleaved DNA left (log2)” value is -0.0159.
For the sequence GGCCGCC, the “uncleaved DNA left (log2)” value worked out at 0.0328.
The same measure, in the same setting: the figure for CCCACGA is -0.0416.
On to TTGATTA, for which the “uncleaved DNA left (log2)” value was -0.0593.
As to AAAATGG, the “uncleaved DNA left (log2)” value amounted to 0.0666.
On the same count and under the same terms, the figure for TGTAAGT is 0.0686; for AGGATCT it is 0.0402.
Same read-out and setting: the figure for ATGATAA is 0.0505; for GGGTATA it is 0.0393; for ATGAGAC it is -0.0183.
The same measure, in the same setting: in the case of AGGAAAG it was -0.00533; in that of CATCCCA, 0.0983; in that of ATGTAGA, 0.00349.
Regarding GGTTCAA, the “uncleaved DNA left (log2)” value stood at 0.107.
As for TTACACA, the “uncleaved DNA left (log2)” value is 0.0272.
The same measure, in the same setting: in the case of GGTGCTC it was -0.0876; in that of AGTCCGC, -0.0405; in that of AAGCACA, 0.115.
Consider TTAATGG, for which the “uncleaved DNA left (log2)” value amounted to 0.154.
For the sequence AACAATT, the “uncleaved DNA left (log2)” value was -0.425.
As to GGCCCAA, the “uncleaved DNA left (log2)” value was found to be 0.265.
Still for that read-out and setting: the figure for CGGCCGG is 0.0923; for AGAACCT it is 0.0174.
The same measure, in the same setting: in the case of AATACAG it was 0.0119; in that of GCTAGGT, 0.0905; in that of GATTATC, 0.0792.
For TCCACCC, the “uncleaved DNA left (log2)” value worked out at 0.00124.
Regarding GAGGAGC, the “uncleaved DNA left (log2)” value was 0.117.
Same read-out and setting: the figure for AGTCGTG is 0.00362; for GCATAGT it is -0.0936.
Regarding TCCGTGT, the “uncleaved DNA left (log2)” value was determined as 0.0112.
Still for that read-out and setting: the figure for GTGACAG is 0.0427; for AACTTGA it is 0.0917; for CTCTCTG it is -0.0621.
GAATTCA: the “uncleaved DNA left (log2)” value was 0.0535.
Still for that read-out and setting: the figure for ACGGGGA is -0.0987; for CCACTAG it is 0.0559; for CTCCCAT it is 0.0308.

The test system of another assay is T3, Rep nickase domain of cabbage leaf curl virus.
T3 sequence (Rep 1-116, printed without the tag): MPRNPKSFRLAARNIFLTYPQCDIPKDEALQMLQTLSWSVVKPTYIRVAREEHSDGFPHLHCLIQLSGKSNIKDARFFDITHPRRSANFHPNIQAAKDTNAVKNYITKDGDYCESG
Described as above. Here is the method:
as §1
As for CTGGGAG, the “uncleaved DNA left (log2)” value is -0.409.
For the sequence TGATATT, the “uncleaved DNA left (log2)” value was -2.23.
As for TAAATCG, the “uncleaved DNA left (log2)” value was -0.958.
For the sequence GGCCGCC, the “uncleaved DNA left (log2)” value was determined as 0.333.
Still for that read-out and setting: the figure for CCCACGA is -0.0912; for TTGATTA it is -0.0134.
Same read-out and setting: in the case of AAAATGG it was -0.192; in that of TGTAAGT, 0.153; in that of AGGATCT, 0.265.
On the same count and under the same terms, the figure for ATGATAA is -0.254; for GGGTATA it is 0.803; for ATGAGAC it is 0.261.
Regarding AGGAAAG, the “uncleaved DNA left (log2)” value was -0.434.
As to CATCCCA, the “uncleaved DNA left (log2)” value was -0.0532.
As to ATGTAGA, the “uncleaved DNA left (log2)” value was -0.306.
As to GGTTCAA, the “uncleaved DNA left (log2)” value stood at 0.452.
On the same count and under the same terms, the figure for TTACACA is 0.0602; for GGTGCTC it is 0.52.
Still for that read-out and setting: in the case of AGTCCGC it was -0.236.
On to AAGCACA, for which the “uncleaved DNA left (log2)” value worked out at 0.077.
Same read-out and setting: the figure for TTAATGG is 0.513; for AACAATT it is -1.23.
The same measure, in the same setting: in the case of GGCCCAA it was 0.607.
Regarding CGGCCGG, the “uncleaved DNA left (log2)” value worked out at 0.417.
The same measure, in the same setting: in the case of AGAACCT it was 0.694; in that of AATACAG, -0.708; in that of GCTAGGT, 0.394.
As for GATTATC, the “uncleaved DNA left (log2)” value was found to be 0.279.
In the case of TCCACCC, the “uncleaved DNA left (log2)” value was determined as 0.128.
The same measure, in the same setting: the figure for GAGGAGC is 0.726.
Still for that read-out and setting: in the case of AGTCGTG it was -0.18; in that of GCATAGT, -0.336.
Same read-out and setting: in the case of TCCGTGT it was 0.112.
On to GTGACAG, for which the “uncleaved DNA left (log2)” value amounted to 0.707.
For AACTTGA, the “uncleaved DNA left (log2)” value was -0.167.
On the same count and under the same terms, the figure for CTCTCTG is -0.269.
With GAATTCA, the “uncleaved DNA left (log2)” value is -0.191.
On the same count and under the same terms, in the case of ACGGGGA it was 0.649; in that of CCACTAG, -0.831.
Same read-out and setting: the figure for CTCCCAT is 0.126.
